Assay results: the supplement of paper PMC4967469
By IC50 is meant the dose at which the fit gives 50% viability; where the fit passes the top or lowest dose, that dose stands as a limit. The AUC spans the tested range (256-fold, ending at the top dose) of the same fit; the more sensitive the line, the further below 1. For some assays here: An inferred top dose was calculated from the reported fits. For some assays here: Where an entry number is given, a second screen of the drug exists; the two often differ.

What was measured:
Test in all cases: Viability of human cancer cell lines after 72 h of drug (GDSC screen)
[1] = compound: CC1(C)CC(=O)c2c(C(F)(F)F)nn(-c3ccc(C(N)=O)c(N[C@H]4CC[C@H](O)CC4)c3)c2C1 [SNX-2112]; settings: top dose 2.56 µM
Experimental: (§1)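 Human cancer cell lines in 384-well plates, medium with 10% serum, drug for 72 h over a 256-fold dose range (nine 2-fold or five 4-fold steps up to the top dose). Adherent lines were fixed and stained with the nucleic acid dye Syto60, suspension lines read with resazurin; signal relative to control wells, capped at 0 and 100%. One two-parameter sigmoid per drug and line, fitted in a mixed model over all curves with the slope shared within a line.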

[2] = compound: CN(c1ncccc1CNc1nc(Nc2ccc3c(c2)CC(=O)N3)ncc1C(F)(F)F)S(C)(=O)=O [PF-562271]; settings: top dose 2.56 µM; top dose inferred
Experimental: as §1

[3] = compound: CN(C)C/C=C/C(=O)Nc1cc2c(Nc3ccc(F)c(Cl)c3)ncnc2cc1O[C@H]1CCOC1 [Afatinib]
Experimental: as §1

[4] = compound: O=C(NC1CC1)c1cccc(-c2ccc3c(NC(=O)C4CC4)n[nH]c3c2)c1 [XMD13-2]; settings: top dose 10.24 µM; top dose inferred
Experimental: as §1

[5] = compound: CC[C@]1(O)C[C@@H]2CN(CCc3c([nH]c4ccccc34)[C@@](C(=O)OC)(c3cc4c(cc3OC)N(C)[C@H]3[C@@](O)(C(=O)OC)[C@H](OC(C)=O)[C@]5(CC)C=CCN6CC[C@]43[C@@H]65)C2)C1 [Vinblastine]; settings: top dose 0.1 µM; top dose inferred
Experimental: as §1

[6] = top dose 0.5 µM, screen: GDSC drug entry 1032
[7] = top dose 10 µM, screen: GDSC drug entry 1377, top dose inferred

Row | Cell Line | AUC [1] | IC50 [1] [nM] | AUC [2] | IC50 [2] [nM] | AUC [3, 6] | IC50 [3, 6] [nM] | AUC [3, 7] | IC50 [3, 7] [nM] | AUC [4] | IC50 [4] [µM] | AUC [5] | IC50 [5] [nM]
1 | ALL-SIL (T-cell leukaemia, suspension) | 0.292 | 45.9 | 0.838 | 1400 | 0.982 | > 500 | 0.942 | > 10000 | 0.439 | 0.447 | 0.225 | 1.15
2 | VMRC-RCZ (kidney, adherent) | 0.852 | 2500 | 0.907 | > 2560 | 0.907 | > 500 | 0.956 | > 10000 | 0.94 | > 10.2 | 0.684 | 22.4
3 | MMAC-SF (melanoma, adherent) | 0.987 | > 2560 | 0.968 | > 2560 | 0.982 | > 500 | 0.984 | > 10000 | 0.963 | > 10.2 | 0.639 | 15.4
4 | PANC-04-03 (pancreas, adherent) | 0.932 | > 2560 | 0.934 | > 2560 | 0.897 | > 500 | – | – | 0.962 | > 10.2 | 0.798 | 86.6
5 | KYSE-410 (oesophagus, adherent) | 0.782 | 1140 | 0.841 | 1950 | 0.657 | 88 | 0.79 | 4790 | 0.956 | > 10.2 | 0.483 | 5.61
6 | YAPC (pancreas, adherent) | 0.795 | 1530 | 0.913 | > 2560 | 0.94 | > 500 | 0.848 | > 10000 | 0.973 | > 10.2 | 0.85 | > 100
7 | JSC-1 (B-cell lymphoma, suspension) | 0.239 | 28.4 | 0.963 | > 2560 | 0.987 | > 500 | 0.983 | > 10000 | 0.707 | 2.43 | 0.552 | 8.63
8 | RCC10RGB (kidney, adherent) | 0.905 | > 2560 | 0.791 | > 2560 | 0.927 | > 500 | 0.782 | 9960 | 0.967 | > 10.2 | 0.919 | > 100
9 | MFM-223 (breast, adherent) | 0.801 | 1230 | 0.989 | > 2560 | 0.989 | > 500 | 0.983 | > 10000 | 0.979 | > 10.2 | 0.589 | 11
10 | SU-DHL-4 (B-cell lymphoma, suspension) | 0.271 | 44.6 | 0.997 | > 2560 | 0.997 | > 500 | 0.997 | > 10000 | 0.947 | 9.71 | 0.918 | 73.2
11 | EKVX (lung adenocarcinoma, adherent) | 0.859 | > 2560 | 0.937 | > 2560 | 0.743 | 361 | 0.651 | 2650 | 0.96 | > 10.2 | 0.887 | > 100
12 | NCI-H345 (small cell lung carcinoma, suspension) | 0.989 | > 2560 | 0.99 | > 2560 | 0.988 | > 500 | 0.985 | > 10000 | 0.99 | > 10.2 | 0.92 | > 100
13 | HAL-01 (lymphoblastic leukaemia, suspension) | 0.394 | 85 | 0.949 | > 2560 | 0.958 | > 500 | 0.968 | > 10000 | 0.906 | > 10.2 | 0.758 | 31.1
14 | A375 (melanoma, adherent) | 0.304 | 50.7 | 0.926 | > 2560 | 0.99 | > 500 | 0.99 | > 10000 | 0.991 | > 10.2 | 0.347 | 2.57
15 | WSU-NHL (lymphoid neoplasm, suspension) | 0.237 | 31.1 | 0.936 | > 2560 | 0.968 | > 500 | 0.99 | > 10000 | 0.929 | > 10.2 | 0.365 | 2.78
16 | KGN (ovary, adherent) | 0.267 | 29.5 | 0.965 | > 2560 | 0.979 | > 500 | 0.937 | > 10000 | 0.88 | > 10.2 | 0.724 | 31.4
17 | NCI-H446 (small cell lung carcinoma, semi-adherent) | 0.436 | 106 | 0.969 | > 2560 | 0.985 | > 500 | 0.908 | > 10000 | 0.673 | 2.03 | 0.419 | 3.68
18 | EB-3 (Burkitt lymphoma, suspension) | 0.599 | 313 | 0.984 | > 2560 | 0.984 | > 500 | 0.96 | > 10000 | 0.944 | > 10.2 | 0.968 | > 100
19 | OCI-AML5 (acute myeloid leukaemia, suspension) | 0.307 | 48.5 | 0.865 | 1940 | 0.985 | > 500 | 0.974 | > 10000 | 0.874 | 8.46 | 0.532 | 7.59
20 | HCC2998 (large intestine, adherent) | 0.736 | 738 | 0.906 | > 2560 | 0.978 | > 500 | – | – | 0.964 | > 10.2 | 0.544 | 8.22
21 | NCI-H810 (large cell lung carcinoma, adherent) | 0.473 | 136 | 0.8 | 1180 | 0.987 | > 500 | 0.985 | > 10000 | 0.814 | 5.29 | 0.823 | 55.9
22 | DBTRG-05MG (glioma, adherent) | 0.799 | 1480 | 0.866 | > 2560 | 0.975 | > 500 | 0.976 | > 10000 | 0.897 | > 10.2 | 0.545 | 8.49
